Data as given in PubChem BioAssay AID2147 (National Center for Advancing Translational Sciences (NCATS), 2009).
Screen size: about 230,000 compounds; about 3,600 (1.6%) were called active. The shares of active, inactive and inconclusive entries below differ from those in the screen. Calls come from the whole dose curve; as a rule, active = well fitted inhibition curve with a large enough effect (not every such curve was filed as active); inconclusive = small, poorly fitted or top-dose-only effect, or another doubt; inactive = no such curve, though single readings can be large or run the other way. A potency beside an inconclusive call is a rough fit, not a confirmed value.

These compounds were tested against Lysine-specific demethylase 4E (Homo sapiens) (UniProt B2RXH2) (assay: qHTS Assay for Inhibitors of Human Jumonji Domain Containing 2E (JMJD2E)). Details: JMJD2E catalytic domain, FDH-coupled NADH fluorescence (FDH is formaldehyde dehydrogenase); series mostly up to 57.1 µM.
Chain of UniProt B2RXH2 (B2RXH2 whole entry, looked up, the tested form may be a part): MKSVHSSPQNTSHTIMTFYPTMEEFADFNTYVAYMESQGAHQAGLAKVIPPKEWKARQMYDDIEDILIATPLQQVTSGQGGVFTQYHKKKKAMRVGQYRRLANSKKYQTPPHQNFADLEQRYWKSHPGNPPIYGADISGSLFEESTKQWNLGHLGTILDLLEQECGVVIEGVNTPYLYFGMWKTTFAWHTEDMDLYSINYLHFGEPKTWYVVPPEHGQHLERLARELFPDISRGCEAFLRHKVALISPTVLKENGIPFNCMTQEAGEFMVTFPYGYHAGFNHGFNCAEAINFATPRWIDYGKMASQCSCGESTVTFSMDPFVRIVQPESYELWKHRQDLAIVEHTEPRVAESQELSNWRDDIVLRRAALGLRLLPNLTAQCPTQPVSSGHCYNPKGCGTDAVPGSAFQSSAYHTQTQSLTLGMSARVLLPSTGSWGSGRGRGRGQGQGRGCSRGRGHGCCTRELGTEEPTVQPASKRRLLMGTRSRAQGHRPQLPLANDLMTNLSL
Note: nearly all actives have a fitted effect of over 50% in size.
Potency is the fitted concentration of half-maximal effect; tags give direction and shape of the fitted curve.
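Throughout, for activity change, negative = inhibition: 0% = wells with enzyme and -100% = buffer wells without enzyme.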

SMILES	Potency	activity change, negative = inhibition
CC1=CN2CC(O)CN=C2C=C1 (stereo unspecified)	inconclusive: 31.6 µM [inhibitor, partial curve]	
CCCc1c(O)c2ccccc2n(-c2ccccc2)c1=O	inconclusive: 31.6 µM [inhibitor, partial curve]	
CC(=O)Cc1nsc(NC(=O)c2oc(-c3ccccc3Cl)cc2C)n1	inconclusive: 31.6 µM [inhibitor, partial curve]	
CCCCNC(=O)CSc1nc2n[nH]c(C)c2c(=N)n1-c1cccc(Cl)c1C	inconclusive: 35.5 µM [inhibitor, single point]	
N#Cc1c(N)nc(SCC(=O)NCc2ccc3c(c2)OCO3)c(C#N)c1-c1cccs1	inconclusive: 35.5 µM [inhibitor, single point]	
O=C(NCCC1=CCCCC1)c1cc(-c2ccncc2)nc2ccccc12	inactive	
COCCn1c(-c2ccc(OC)cc2)nc2ccccc21	inconclusive: 25.1 µM [inhibitor, single point]	
Clc1nc(Cl)nc(N(c2ccccc2)c2ccccc2)n1	inactive	
CCCc1cc2c(OC(=O)CC)c(-c3ccc(C(=O)OCC)o3)c(=O)oc2cc1OC	inconclusive: 28.2 µM [inhibitor, partial curve]	
Cn1c2ccccc2c2nnc(SCC(=O)NCc3ccoc3)nc21	inactive	
COc1ccccc1C1N(c2cc(Cl)ccc2OC)C(=O)C2CCCN21 (stereo unspecified)	inactive	
CSc1nnc2c3ccccc3n(CCc3ccccc3)c2n1	inactive	
CCCCOc1ccc(C(=O)N/N=C/c2cn[nH]c2-c2ccc(OC)c(OC)c2)cc1	inconclusive: 39.8 µM [inhibitor, single point]	
CC(C)(C)NS(=O)(=O)c1ccc(Oc2ncc(C(F)(F)F)cc2Cl)cc1	inactive	
CCCCCc1cc(=O)oc2c(C(CCN3CCCC3)c3cc(OC)c(OC)c(OC)c3)c(OC)cc(OC)c12 (stereo unspecified)	active: 22.4 µM	
COc1cc([N+](=O)[O-])ccc1NC(=S)Nc1cccc(C(=O)O)c1	inconclusive: 0.447 µM [inhibitor, partial curve]	
COc1cccc(-c2cc(C(=O)N3CCc4ccccc4C3)no2)c1	inactive	
O=C(N/N=C/C1CC=CCC1)c1cc(-c2cccnc2)nc2ccccc12 (stereo unspecified)	inactive	
O=C(O)CSc1nc2sc3c(c2c(=O)n1-c1ccccc1)CCC3	inconclusive: 39.8 µM [inhibitor, single point]	
CCOC(=O)c1oc2ccccc2c1CN1CCN(C)CC1	inconclusive: 35.5 µM [inhibitor, single point]	
O=C(c1cc(F)c(F)cc1Cl)N1CCOCC1	inactive	
Cc1ccc(NC(=O)C(=O)Nc2ccccn2)cc1	inconclusive: 35.5 µM [inhibitor, single point]	
N#Cc1c(N)nc2c(c1-c1ccccc1)CCCC2	inconclusive: 31.6 µM [inhibitor, single point]	
O=C(CN1C(=O)c2cccc3cccc1c23)Nc1ccc(S(=O)(=O)Nc2nccs2)cc1	inconclusive: 35.5 µM [inhibitor, single point]	

SMILES	Potency	activity change, negative = inhibition
O=C(CSc1nnc(-c2c[nH]c3ccccc23)o1)c1ccccc1	inconclusive: 35.5 µM [inhibitor, single point]	
CCn1c2c(c3cc(Cl)ccc31)CCCC2=O	inconclusive: 39.8 µM [inhibitor, single point]	
CCOC(=O)N1CCC(NC(=O)c2ccc3c(c2)sc2nc(-c4ccc(OC)cc4)cn23)CC1	inconclusive: 3.16 µM [inhibitor, full curve]	
CC(C)(CN1CCc2ccccc2C1)NS(=O)(=O)c1ccccc1	inconclusive: 28.2 µM [inhibitor, single point]	
Cc1nc(Oc2ccc(S(=O)(=O)N3CCOCC3)cc2Cl)c2c3c(sc2n1)CCCC3	inconclusive: 39.8 µM [inhibitor, single point]	
CC(C)OCCCNC(=O)c1ccc(C2SCC(=O)N2Cc2ccco2)cc1 (stereo unspecified)	inactive	
Cc1ccc(-n2c(=O)c3c4c(sc3n(Cc3cc(=O)n5ccccc5n3)c2=O)CCC4)cc1C	inconclusive: 39.8 µM [inhibitor, single point]	
O=S(=O)(Nc1ccc2c(c1)OCO2)c1ccccc1	inactive	
Cn1c(=O)n(C)c2cc([N+](=O)[O-])c(N3CCN(C(=O)c4cccc(Cl)c4)CC3)cc21	inactive	
CCOC(=O)c1ccc(-c2ccc(C(=O)Nc3cccnc3)o2)cc1	inconclusive: 35.5 µM [inhibitor, single point]	
O=C(Cc1ccc([N+](=O)[O-])cc1)Nc1ccc2c(c1)C(=O)NC2=O	inconclusive: 25.1 µM [inhibitor, partial curve]	
CCNC(=O)c1c(O)c2ccccc2[nH]c1=O	inconclusive: 39.8 µM [inhibitor, single point]	
NC(=O)c1ccc(NC(=O)COC(=O)c2c3c(nc4ccccc24)/C(=C\c2ccc4c(c2)OCO4)CCC3)cc1	active: 3.16 µM	
O=C(COC(=O)c1ccccc1NC(=O)c1ccco1)Nc1ccc2c(c1)OCO2	inconclusive: 35.5 µM [inhibitor, single point]	
Cc1cc2nc(-c3cccnc3SCC(=O)NCc3ccco3)[nH]c2cc1C	inconclusive: 28.2 µM [inhibitor, partial curve]	
C/C(CC(=O)NCc1ccccc1)=N\NC(N)=S	inactive	
COc1ccccc1CNc1nc(-c2cc(C)n(C)c2C)cs1	inconclusive: 14.1 µM [inhibitor, partial curve]	
CCc1sc(C(=O)Nc2ccsc2C(=O)OC)cc1Br	inconclusive: 7.08 µM [inhibitor, single point]	
COCCNC(=O)c1ccc(C(=O)NCCOC)s1	inactive	
CCOCCn1c(-c2ccccc2)nc2ccccc21	inconclusive: 39.8 µM [inhibitor, single point]	
O=C(NCCCCCc1nc2ccccc2[nH]1)c1ccccc1Cl	inconclusive: 0.0089 µM [inhibitor, full curve, poor fit]	
CN1CCC(=NNC(=O)c2cn(-c3ccccc3)nc2-c2ccccc2)CC1	inactive	
COc1cc(OC)cc(C(=O)NCC(=O)OCC(=O)c2cc(C)n(Cc3ccco3)c2C)c1	inactive	
O=C(NCc1cccc(CNC(=O)C(=O)NCc2ccco2)c1)C(=O)NCc1ccco1	inactive	

SMILES	Potency	activity change, negative = inhibition
CN(C)c1ccc(/C=C/C(=O)c2c(O)c3ccccc3oc2=O)cc1	inconclusive: 12.6 µM [inhibitor, partial curve]	
CC(=O)Nc1sc2c(c1C(N)=O)CCC2	inconclusive: 35.5 µM [inhibitor, single point]	
CCOc1ccc(C(=O)Nc2ccc(-c3cc4ccccc4oc3=O)c(C)c2)cc1[N+](=O)[O-]	inconclusive: 39.8 µM [inhibitor, single point]	
COc1ccc(C(CC(=O)NCc2ccccc2)Sc2n[nH]c(-c3ccc(Cl)cc3)n2)cc1 (stereo unspecified)	inactive	
COC(=O)c1cn(C)c2ccc(S(=O)(=O)N3CCCCC3)cc2c1=O	inconclusive: 28.2 µM [inhibitor, partial curve]	
CN1CCN(c2ccc(C(CC(N)=O)NC(=O)Cc3ccc(Br)cc3)cc2[N+](=O)[O-])CC1 (stereo unspecified)	inconclusive: 2.24 µM [inhibitor, partial curve]	
CCOc1nc(Nc2ccc(OC)cc2)nc(OCC)n1	inactive	
Cn1cnc([N+](=O)[O-])c1Nc1ccc(O)cc1	inactive	
O=C(CN1CCN(Cc2ccccc2)CC1)Nc1ccc(Cl)cn1	inactive	
COc1ccc(NC2=CC(c3ccc(OC)cc3)N(c3ccc(OC)cc3)C2=O)cc1 (stereo unspecified)	inconclusive: 25.1 µM [inhibitor, partial curve]	
Cc1cc(=O)oc2cc(NC(=O)C3COc4ccccc4O3)ccc12 (stereo unspecified)	inconclusive: 31.6 µM [inhibitor, partial curve]	
COc1cc(/C=N/NC(=O)C(Cc2c[nH]c3ccccc23)NC(=O)OCc2ccccc2)cc([N+](=O)[O-])c1O (stereo unspecified)	inconclusive: 35.5 µM [inhibitor, single point]	
O=C(Nc1cccc2nsnc12)c1ccc(F)cc1	inconclusive: 39.8 µM [inhibitor, single point]	
CCOc1ccc(C2C=C(c3ccccc3)Nc3ncnn32)cc1 (stereo unspecified)	inconclusive: 28.2 µM [inhibitor, partial curve]	
COc1cccc(-n2c(SCC(N)=O)nc3c([nH]c4ccccc43)c2=O)c1	inconclusive: 35.5 µM [inhibitor, single point]	
COc1ccccc1-c1cc(C(=O)Nc2c(F)cc(F)cc2Br)no1	inconclusive: 35.5 µM [inhibitor, single point]	
COc1ccc2[nH]c3c(=O)n(CCCN4CCOCC4)cnc3c2c1	inconclusive: 25.1 µM [inhibitor, partial curve]	
Brc1ccc(-c2cnnc(N3CCCC3)n2)cc1	inactive	
COc1cccc(-n2c(-c3ccc4[nH]c(C)c(C)c4c3)n[nH]c2=S)c1	inconclusive: 14.1 µM [inhibitor, partial curve]	
COc1ccc(-c2nc3c(c4c2C[C@H](c2ccccc2)OC4)CN(S(=O)(=O)c2ccc(C)cc2)CC3)c(C)c1		inactive: 9.39% [at 11.4 µM]
COc1ccc2[nH]c(=O)c(CN(Cc3cccs3)C(=S)NCC3CCCO3)cc2c1 (stereo unspecified)	inconclusive: 31.6 µM [inhibitor, partial curve]	
Cc1ccc(C(=O)N2CCN(c3ccccn3)CC2)cc1	inconclusive: 25.1 µM [inhibitor, single point]	
Cc1cc(C)n2c3c(c(C#N)c2n1)CC(C)(C)OC3	inconclusive: 28.2 µM [inhibitor, partial curve]	
